# PubChem BioAssay AID686978 (National Center for Advancing Translational Sciences (NCATS), 2013)
# The whole screen tested about 420,000 compounds, of which about 64,000 (15%) were called active. This list was built around the results that the source calls inconclusive (neither active nor inactive); the mix of calls is not that of the screen. Calls come from the whole dose curve; as a rule, active = well fitted inhibition curve with a large enough effect; inconclusive = small, poorly fitted or top-dose-only effect; inactive = flat fitted curve, though single readings scatter. Potencies of inconclusive entries are left out as doubtful fits.
# Assay: qHTS for Inhibitors of human tyrosyl-DNA phosphodiesterase 1 (TDP1): qHTS in cells in absence of CPT; note: nearly all actives have a fitted effect of over 55% in size
# Details: DT40 Tdp1-/- hTDP1 cells, no CPT, ATP luminescence, 48 h; activity change, negative = growth inhibition: at 46.2 µM (top of the series)
# Outline: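 Readout: luminescence from CellTiter-Glo after 30 min in the dark at RT. Cells: DT40 Tdp1-/- with stable hTDP1, 400/well. Exposure: compounds alone, ≥48 hr, 37 °C.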
# % is set by controls: 0 for no effect and ±100 for the full control effect; potency is the fitted concentration of half-maximal effect; tags give direction and shape of the fitted curve.
Compound,Potency,"activity change, negative = growth inhibition"
COCCn1c(SCC(=O)Nc2cc(C(C)(C)C)nn2-c2ccccc2)nc2ccccc2c1=O,"inconclusive [inhibitor, partial curve]",
CCOC(=O)c1c(N)sn(-c2ccccc2C)c1=S,active: 25.9 µM,
CC1CC(C)CN(C(=O)Cn2c(=O)n(CCCCC(=O)NCc3ccco3)c(=O)c3ccccc32)C1 (stereo unspecified),"inconclusive [inhibitor, single point]",
Cc1cc2nc(-c3ccc(NC(=O)c4ccccc4F)cc3)oc2cc1C,active: 8.2 µM,
CSc1cc(-c2ccc(Cl)cc2)c(C(=O)NC(C)C)s1,active: 11.6 µM,
COc1ccccc1-c1noc(-c2ccc(NC3CCCC3)c([N+](=O)[O-])c2)n1,active: 23.1 µM,
CCC(C)c1ccc(N(CC(=O)NC(C)(C)C)C(=O)CNC(=O)c2cccs2)cc1 (stereo unspecified),active: 18.4 µM,
O=C1c2ccccc2C(=O)C12OC(c1ccccc1)C1(C(=O)c3ccccc3C1=O)C2c1ccc([N+](=O)[O-])cc1 (stereo unspecified),"inconclusive [inhibitor, full curve]",
O=C(CSc1nc(C2CC2)nc2ccccc12)Nc1ccccc1,"inconclusive [inhibitor, single point]",
Cc1ccc(OCC(=O)N/N=C/c2cn(Cc3ccccc3)c3ccccc23)cc1,"inconclusive [inhibitor, single point]",
COCCNC(=S)N(CCO)Cc1cc2cc3c(cc2[nH]c1=O)OCCO3,,inactive: -4.88%
CN(C)c1ccc(P(=O)(Nc2cccc(C(F)(F)F)c2)N2CCOCC2)c(NC(=O)c2cccs2)c1 (stereo unspecified),"inconclusive [inhibitor, single point]",
CC(C)CNc1ncnc2c1ncn2[C@H]1CN(CCc2ccccc2)C[C@@H](CO)O1,,inactive: -28.1%
COc1ccc(CN2CCN(Cc3c[nH]c4ccccc34)CC2)c(OC)c1,active: 0.291 µM,
CCN1CCN(C(=O)c2cc(S(=O)(=O)N3CC(C)CC(C)C3)ccc2Cl)CC1 (stereo unspecified),"inconclusive [inhibitor, partial curve]",
COc1cc(C)nc(N(Cc2ccccc2)S(=O)(=O)c2ccccc2)n1,"inconclusive [inhibitor, single point]",
COc1cccc(/C=C/C(=O)OCC(=O)Nc2nnc(-c3ccccc3)o2)c1,,inactive: -2.77%
COC1CCCN(C(=O)c2ccc3nc(Cc4cccc(Cl)c4)oc3c2)C1 (stereo unspecified),"inconclusive [inhibitor, single point]",

Compound,Potency,"activity change, negative = growth inhibition"
O=C(c1ccccn1)N1CCN(c2ccc(C(F)(F)F)cn2)CC1,"inconclusive [inhibitor, single point]",
COC(=O)c1ccc(C2Nc3c(C)cccc3-c3cc(C)nn32)cc1 (stereo unspecified),active: 16.4 µM,
O=C(Cn1c(=O)oc2cc(S(=O)(=O)NCc3ccccc3)ccc21)Nc1cccc(F)c1,"inconclusive [inhibitor, partial curve]",
CCOC(=O)c1sc(NC(=O)/C=C/c2cnn(C)c2C)c(C(=O)OC(C)C)c1C,"inconclusive [inhibitor, single point]",
Cc1[nH]c2ccccc2c1C(=O)CSc1nccc(=O)[nH]1,,inactive: 11.3%
O=C(CN1C(=O)C2(OCCO2)c2ccccc21)c1ccc(Br)cc1,"inconclusive [inhibitor, partial curve, poor fit]",
COc1ccc2ccccc2c1CNC(C)CCc1ccccc1 (stereo unspecified),"inconclusive [inhibitor, single point]",
COc1ccc(NC(=O)C(NS(=O)(=O)c2cccc3nsnc23)C(C)C)cc1 (stereo unspecified),,inactive: -13.4%
C=CCc1cc(C)ccc1OCCCn1ccnc1,,inactive: -29.9%
COc1ccc(CCCc2nnc(SCc3nc4ccccc4c(=O)[nH]3)n2C)cc1,"inconclusive [inhibitor, single point]",
COc1ccc2c(c1)CCc1c(C(=O)N3CC4(C)CC3CC(C)(C)C4)noc1-2 (stereo unspecified),"inconclusive [inhibitor, single point]",
Cc1ccc(NS(=O)(=O)c2ccc(NC(=O)C3CC3)cc2)c(C)c1,"inconclusive [inhibitor, single point]",
NC(=O)CC(c1ccccc1)c1ccc2c(c1)OCO2 (stereo unspecified),,inactive: 6%
CCN(CCO)C(=S)Nc1cc(C(=O)OC)ccc1C(=O)OC,,inactive: -16.3%
CC/C(=C\c1oc2cc3ccccc3cc2[n+]1CC)Nc1ccccc1,active: 13 µM,
CCOC(=O)N1CCN(Cc2nc3cc(NC(C)=O)ccc3n2C)CC1,,inactive: 0.858%
CCN1CCN(c2ccc(S(=O)(=O)N3CCOCC3)cc2NC(=O)c2ccc(C)c(C)c2)CC1,"inconclusive [inhibitor, single point]",
Cc1ncn(C23CC4CC(CC(C4)C2)C3)n1,"inconclusive [inhibitor, single point]",
